Laboratory results: the supplement of paper PMC7125110
± gives the standard error. This sample is rich in variants without activity.

B1: glmS ribozyme (parent)
chain: AUAAAAGCGCCAGAACUACAGAAAUGUAGUUGACGAGGAGGAGGUUUAUCGAAUUUUCGGCGGAUGCCUCCAAA

What was measured:
Conditions in all cases: with glucosamine-6-phosphate
glucosamine-6-phosphate [1] = variants of: B1; experiment: self-cleavage kobs at 40 uM GlcN6P; higher = faster cleavage; RNA array
How it was run: (§1)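 Barcoded ribozyme variants on sequenced MiSeq chips were transcribed in situ by E. coli RNA polymerase and followed at 37 °C through a hybridised Cy3 probe. Glucosamine-6-phosphate at 40 μM to 10 mM in HEPES/KCl/Mg(OAc)2 buffer was flowed in, and tiles were imaged over ~14 h. Signals were normalised to baseline and to non-cleaving reference variants, and per-tile medians were fit to one- or two-exponential decays to give kobs. Weighted Michaelis–Menten fits across concentrations gave kcat and KM.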

glucosamine-6-phosphate [2] = variants of: B1; experiment: self-cleavage kobs at 10000 uM GlcN6P; higher = faster cleavage; RNA array
How it was run: as §1

glucosamine-6-phosphate [3] = variants of: B1; experiment: self-cleavage kobs at 160 uM GlcN6P; higher = faster cleavage; RNA array
How it was run: as §1

glucosamine-6-phosphate [4] = variants of: B1; experiment: self-cleavage kobs at 640 uM GlcN6P; higher = faster cleavage; RNA array
How it was run: as §1

glucosamine-6-phosphate [5] = variants of: B1; experiment: self-cleavage kobs at 2500 uM GlcN6P; higher = faster cleavage; RNA array
How it was run: as §1

Variant	self-cleavage kobs at 40 uM GlcN6P (glucosamine-6-phosphate [1]) [s⁻¹]	self-cleavage kobs at 10000 uM GlcN6P (glucosamine-6-phosphate [2]) [s⁻¹]	self-cleavage kobs at 160 uM GlcN6P (glucosamine-6-phosphate [3]) [s⁻¹]	self-cleavage kobs at 640 uM GlcN6P (glucosamine-6-phosphate [4]) [s⁻¹]	self-cleavage kobs at 2500 uM GlcN6P (glucosamine-6-phosphate [5]) [s⁻¹]
G32A G35C C67G	< 1e-05	< 1e-05			
U30C G60A	< 1e-05	< 1e-05	< 1e-05		
A33U G37A A52U	< 1e-05	< 1e-05			
U30C G40A	< 1e-05				
U30G G59C	< 1e-05	< 1e-05		< 1e-05	
A33G C58A	< 1e-05				
U31G G38A	< 1e-05	< 1e-05			
A33C G51A G60C	< 1e-05			< 1e-05	
U31G G60A	< 1e-05				
U31C G40C A53G	< 1e-05				
G35C	< 1e-05	< 1e-05	< 1e-05	< 1e-05	< 1e-05
G35A	< 1e-05	< 1e-05	< 1e-05	< 1e-05	< 1e-05
G32A C50G G51U	< 1e-05				
A33U G37C G59U	< 1e-05	< 1e-05			
G35A A53G	< 1e-05	< 1e-05	< 1e-05	< 1e-05	< 1e-05
U30A U49C U55A	< 1e-05				
U30A G35A	< 1e-05	< 1e-05	< 1e-05	< 1e-05	< 1e-05
G29C A53G	4.79e-05 ± 7.8e-06	0.00209 ± 0.00021	0.000154 ± 2.3e-05	0.000398 ± 5.6e-05	0.000948 ± 0.00014
G29U G60A	< 1e-05				
A33U G44C	< 1e-05	< 1e-05	< 1e-05	< 1e-05	< 1e-05
A33C A52G	< 1e-05	< 1e-05	< 1e-05		< 1e-05
U30G U56A G66A	5.14e-05 ± 1.7e-05	0.00252 ± 0.00061			
G29U C58U G62A C70U	< 1e-05	< 1e-05			< 1e-05
C34A C70U	< 1e-05		< 1e-05		
G29C G40A G44U C58G C71A	< 1e-05				

Variant	self-cleavage kobs at 40 uM GlcN6P (glucosamine-6-phosphate [1]) [s⁻¹]	self-cleavage kobs at 10000 uM GlcN6P (glucosamine-6-phosphate [2]) [s⁻¹]	self-cleavage kobs at 160 uM GlcN6P (glucosamine-6-phosphate [3]) [s⁻¹]	self-cleavage kobs at 640 uM GlcN6P (glucosamine-6-phosphate [4]) [s⁻¹]	self-cleavage kobs at 2500 uM GlcN6P (glucosamine-6-phosphate [5]) [s⁻¹]
U31A G60C	< 1e-05			< 1e-05	< 1e-05
U31G A42C C71A	< 1e-05			< 1e-05	< 1e-05
C34A U56G	< 1e-05		< 1e-05	< 1e-05	< 1e-05
C34A A36C G40A G43U G60U C70A	< 1e-05	< 1e-05			
U31C A64C	< 1e-05		< 1e-05		
U31A A48U	< 1e-05				
U30A C34G G43C	< 1e-05	< 1e-05		< 1e-05	< 1e-05
G35A A53U G60A	< 1e-05				
U31A G44U	< 1e-05				
C34G C50U	< 1e-05				
A33G U45A C50G U54G G60A C67A	0.000354 ± 9.5e-05	0.000164 ± 5.5e-05			
U30C U45A U47C C50U G60U C68U	< 1e-05				
G32C A33G	< 1e-05		< 1e-05		< 1e-05
A33U G40A G41A C58A C67U	< 1e-05	< 1e-05			< 1e-05
G29U C34A A42U	< 1e-05			< 1e-05	< 1e-05
C34U G51U U54C U57G	< 1e-05				< 1e-05
C34A G60U C68A	< 1e-05			< 1e-05	
G35C G40C C58G C70U	< 1e-05				
U30A U46C G63C C67G	< 1e-05	< 1e-05		< 1e-05	< 1e-05
G29U G35C G44A C61A	< 1e-05	< 1e-05			< 1e-05
U30A U31C	5.91e-05 ± 1.1e-05				
U31G C71U	0.000277 ± 3.1e-05	0.0107 ± 0.0016	0.000479 ± 8.2e-05	0.00235 ± 0.00045	0.00836 ± 0.0019
G35A G44U U65G	< 1e-05	< 1e-05		< 1e-05	< 1e-05
C34G G41A	< 1e-05	< 1e-05	< 1e-05	< 1e-05	
U31G G44U	< 1e-05	0.000129 ± 3e-05			4.98e-05 ± 1.3e-05

Variant	self-cleavage kobs at 40 uM GlcN6P (glucosamine-6-phosphate [1]) [s⁻¹]	self-cleavage kobs at 10000 uM GlcN6P (glucosamine-6-phosphate [2]) [s⁻¹]	self-cleavage kobs at 160 uM GlcN6P (glucosamine-6-phosphate [3]) [s⁻¹]	self-cleavage kobs at 640 uM GlcN6P (glucosamine-6-phosphate [4]) [s⁻¹]	self-cleavage kobs at 2500 uM GlcN6P (glucosamine-6-phosphate [5]) [s⁻¹]
U30C G37A	< 1e-05				
G32C G38A	< 1e-05	< 1e-05			
U30A A42G C50U C70G	< 1e-05	< 1e-05			
G29C G41U U46C G62U	< 1e-05				
U31C G32C U55C C70U C71G	< 1e-05			< 1e-05	< 1e-05
G35A U47G C68U C70G C71G	< 1e-05				
G29U A53G C67G	5.1e-05 ± 1.8e-05	0.000205 ± 4.9e-05	6.91e-05 ± 1.9e-05	0.000108 ± 1.9e-05	0.000139 ± 3.6e-05
G29U C58G G60A	< 1e-05				
G32A G38A A52C U54A	< 1e-05	< 1e-05			
G35A U55A	< 1e-05				< 1e-05
G29C G41C A42U G51U G62A	< 1e-05	< 1e-05		< 1e-05	< 1e-05
U31G U57G	< 1e-05				
G35A U57C	< 1e-05	< 1e-05	< 1e-05	< 1e-05	< 1e-05
U30C G66A C67G	< 1e-05				
G29C G32C U57G	< 1e-05				
G29U G35A	< 1e-05		< 1e-05	< 1e-05	< 1e-05
G32U G59U C71U	< 1e-05		< 1e-05	< 1e-05	
G32A G44C	< 1e-05		< 1e-05	< 1e-05	
G32A G44A	< 1e-05		< 1e-05		
C34A G40C A42C U65C	< 1e-05	< 1e-05		< 1e-05	
U30C G41C	< 1e-05		< 1e-05	< 1e-05	
C34G U47C A52G U54C	< 1e-05				
G35C A36U G60A	< 1e-05	< 1e-05		< 1e-05	< 1e-05
G32A C50A U55G C71G	< 1e-05				
U31A A42C	< 1e-05		< 1e-05	< 1e-05	< 1e-05

Variant	self-cleavage kobs at 40 uM GlcN6P (glucosamine-6-phosphate [1]) [s⁻¹]	self-cleavage kobs at 10000 uM GlcN6P (glucosamine-6-phosphate [2]) [s⁻¹]	self-cleavage kobs at 160 uM GlcN6P (glucosamine-6-phosphate [3]) [s⁻¹]	self-cleavage kobs at 640 uM GlcN6P (glucosamine-6-phosphate [4]) [s⁻¹]	self-cleavage kobs at 2500 uM GlcN6P (glucosamine-6-phosphate [5]) [s⁻¹]
G35A U56A	< 1e-05	< 1e-05	< 1e-05		
G29C G38C	< 1e-05				
U30C G44A A64U	< 1e-05	< 1e-05	< 1e-05	< 1e-05	< 1e-05
G32C G37C G41U	< 1e-05	< 1e-05			
U31C C71A	3.6e-05 ± 1.1e-05		7.42e-05 ± 8.6e-06	0.00018 ± 1.9e-05	
U31G G62U	< 1e-05	< 1e-05	< 1e-05	< 1e-05	< 1e-05
U31A C67U	0.000116 ± 1.4e-05	0.00427 ± 0.00063	0.000324 ± 8.8e-05	0.00143 ± 0.00019	0.00135 ± 0.00029
G32C G41A A52C	< 1e-05		< 1e-05		< 1e-05
C34A A36C	< 1e-05	< 1e-05			
G35A G44U U49A	< 1e-05				
U31C G38C G43A	< 1e-05	< 1e-05			
G29U U49A	< 1e-05	< 1e-05	< 1e-05		
C34G G43U C67U	< 1e-05				
U31A G35A	< 1e-05	< 1e-05	< 1e-05	< 1e-05	< 1e-05
C34A C71U	< 1e-05		< 1e-05	< 1e-05	< 1e-05
C34G G35C A53U	< 1e-05		< 1e-05		
G29U A42G U56C G63A	< 1e-05	< 1e-05			
U31G G43A	< 1e-05				
A33U C68U	< 1e-05				
C34A G40U	< 1e-05	< 1e-05	< 1e-05	< 1e-05	< 1e-05
C34A G40C	< 1e-05	< 1e-05			
U30C G66C C67U	< 1e-05				
G32U A33G A64G	< 1e-05	< 1e-05			
